# In the BET-seq Pho4 binding data (Le et al. 2018):
# Some of the results follow. The energies were worked out here from pooled read counts, against the library average; single values are noisy.
# Molecular target: T1, Pho4 (S. cerevisiae) (UniProt P07270)
# T1 sequence: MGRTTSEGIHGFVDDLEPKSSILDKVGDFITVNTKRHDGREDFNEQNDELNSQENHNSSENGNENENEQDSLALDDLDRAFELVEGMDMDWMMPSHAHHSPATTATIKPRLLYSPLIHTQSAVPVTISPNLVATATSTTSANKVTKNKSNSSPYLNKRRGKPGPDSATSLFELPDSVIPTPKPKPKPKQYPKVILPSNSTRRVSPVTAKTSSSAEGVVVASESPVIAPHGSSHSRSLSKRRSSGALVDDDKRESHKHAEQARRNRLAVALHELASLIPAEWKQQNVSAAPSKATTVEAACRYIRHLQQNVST
# Test: relative binding free energy (BET-seq); higher = weaker binding
# Settings: reference: library average
row,Sequence,relative binding free energy
1,GTAAGCACGTGTCGGT,0.13 kcal/mol
2,ATGAACACGTGTGGTT,0.05 kcal/mol
3,TCGGGCACGTGTTATT,0.07 kcal/mol
4,ATGAACACGTGGAAGG,0.08 kcal/mol
5,TGGTACACGTGGCTGT,0 kcal/mol
6,AGTAGCACGTGCCTGG,-0.09 kcal/mol
7,TGAGTCACGTGCATAT,0.06 kcal/mol
8,TTAGGCACGTGCGTTC,-0.17 kcal/mol
9,GTTATCACGTGGAAAG,0.17 kcal/mol
10,TGTGGCACGTGTCTAA,-0.12 kcal/mol
11,CTTATCACGTGTGTGG,0.2 kcal/mol
12,TGTTTCACGTGACTGG,0.37 kcal/mol
13,GCTGGCACGTGGAGGA,0 kcal/mol
14,GTGTGCACGTGGCGCT,-0.17 kcal/mol
15,GTTCTCACGTGAGGGA,0.34 kcal/mol
16,TATATCACGTGTTGGC,0.23 kcal/mol
17,TGTAACACGTGTAGTG,-0.04 kcal/mol
18,CTGTGCACGTGTAAAT,0.15 kcal/mol
19,GGTGGCACGTGCTCGT,-0.2 kcal/mol
20,GTGAACACGTGTTTAG,0.02 kcal/mol
21,GTGTGCACGTGTATAG,0 kcal/mol
22,TGATTCACGTGAGCTG,0.39 kcal/mol
23,GAAGACACGTGGGTTT,0.01 kcal/mol

row,Sequence,relative binding free energy
1,AGAGGCACGTGAGGAT,0.19 kcal/mol
2,TAATTCACGTGTTTGC,0.09 kcal/mol
3,GAGTGCACGTGCTTGG,-0.03 kcal/mol
4,AGAGTCACGTGTTATT,0.17 kcal/mol
5,AAGTTCACGTGTGGAG,0.33 kcal/mol
6,ATCTGCACGTGGTGGA,-0.12 kcal/mol
7,ATTGGCACGTGAAGGA,-0.03 kcal/mol
8,TATAGCACGTGAGGGC,0.22 kcal/mol
9,ATTTTCACGTGAGCAT,0.35 kcal/mol
10,TTTCGCACGTGCTTTA,0.01 kcal/mol
11,ATCTTCACGTGAGGAT,0.44 kcal/mol
12,GGATCCACGTGGGATG,-0.03 kcal/mol
13,CAGGACACGTGTGAGT,0.16 kcal/mol
14,TGGAGCACGTGGAGCA,-0.05 kcal/mol
15,ATCTACACGTGGGTTG,-0.04 kcal/mol
16,TAATTCACGTGAGGAG,0.34 kcal/mol
17,TGGGGCACGTGGTGAT,-0.23 kcal/mol
18,AGCTTCACGTGGGTTT,0.12 kcal/mol
19,TATTGCACGTGATGTA,0.17 kcal/mol
20,TGGTGCACGTGCGGCG,-0.01 kcal/mol
21,GCATGCACGTGGGGTT,-0.09 kcal/mol
22,AGGTACACGTGCTGAT,0.02 kcal/mol
23,TGAGGCACGTGAGATG,0.18 kcal/mol

row,Sequence,relative binding free energy
1,TGAGGCACGTGTGCGT,-0.16 kcal/mol
2,TGGTGCACGTGTTGTA,0.01 kcal/mol
3,GGTAGCACGTGAGGGC,0.3 kcal/mol
4,TAAAGCACGTGAGGTG,0.06 kcal/mol
5,GGGTTCACGTGAGAGT,0.45 kcal/mol
6,AAGAGCACGTGTTGCG,-0.06 kcal/mol
7,GAATACACGTGGGTAT,-0.04 kcal/mol
8,CATTGCACGTGTTATT,-0.09 kcal/mol
9,AGTTGCACGTGAGGCA,0.19 kcal/mol
10,TATATCACGTGCTTTG,-0.02 kcal/mol
11,GGTGTCACGTGTGATG,0.3 kcal/mol
12,TTAGCCACGTGGTTAT,-0.14 kcal/mol
13,ATGGGCACGTGAGTAT,0.06 kcal/mol
14,TGGTGCACGTGTCGGT,0.16 kcal/mol
15,TAGTTCACGTGATGTT,0.32 kcal/mol
16,TTGAACACGTGGGGCT,-0.02 kcal/mol
17,GGTAGCACGTGCGTCG,-0.1 kcal/mol
18,TCGGTCACGTGAAGTG,0.24 kcal/mol
19,TTGGGCACGTGCGGTA,-0.06 kcal/mol
20,TGTGCCACGTGGGGAG,-0.06 kcal/mol
21,GGGGGCACGTGGCCGG,-0.2 kcal/mol
22,CGTGTCACGTGCATGG,0.01 kcal/mol
23,ATAAGCACGTGGTATT,-0.34 kcal/mol

row,Sequence,relative binding free energy
1,TGATGCACGTGGTGCT,-0.13 kcal/mol
2,TTTTACACGTGGCGCT,0.08 kcal/mol
3,TCCTGCACGTGTTATG,0.05 kcal/mol
4,GGTTTCACGTGGACTA,0.24 kcal/mol
5,TGGAACACGTGAAGGA,0.35 kcal/mol
6,AGGTTCACGTGAAAAT,0.46 kcal/mol
7,GCTTACACGTGGCGGT,0.26 kcal/mol
8,TTGAGCACGTGGTACG,-0.22 kcal/mol
9,AGGGTCACGTGTTCGA,-0.03 kcal/mol
10,GTAAACACGTGGGTGG,-0.07 kcal/mol
11,GGGGTCACGTGATCGA,0.23 kcal/mol
12,AGGCTCACGTGATGAG,0.26 kcal/mol
13,TTCAGCACGTGAAAGT,0.27 kcal/mol
14,TGAGTCACGTGGGTTC,-0.08 kcal/mol
15,TGTAGCACGTGTAGGT,-0.1 kcal/mol
16,GTGAGCACGTGCTTTT,-0.07 kcal/mol
17,AATGTCACGTGAAATG,0.42 kcal/mol
18,GCGGGCACGTGAGTAT,0.05 kcal/mol
19,ATGAGCACGTGGGGCA,-0.38 kcal/mol
20,TGAAGCACGTGGAGAT,-0.02 kcal/mol
21,AGTCGCACGTGTTTTA,0 kcal/mol
22,CTGAGCACGTGATTGG,0.04 kcal/mol
23,GTGTTCACGTGATCGT,0.3 kcal/mol

row,Sequence,relative binding free energy
1,TGTGACACGTGTGAAG,0 kcal/mol
2,GTTAGCACGTGTAATA,0.26 kcal/mol
3,TGGGTCACGTGGCATG,0.04 kcal/mol
4,AGTGGCACGTGTCCGT,-0.1 kcal/mol
5,AAGGTCACGTGGCTTA,0.02 kcal/mol
6,CAGGACACGTGAGGGT,0.2 kcal/mol
7,AGTATCACGTGTAGTT,0.17 kcal/mol
8,CGTTACACGTGGGCTG,-0.14 kcal/mol
9,CATGTCACGTGTATGT,-0.06 kcal/mol
10,GTTGTCACGTGTCATT,0.1 kcal/mol
11,CAAGACACGTGGTGTG,-0.09 kcal/mol
12,GTATGCACGTGGGATA,-0.07 kcal/mol
13,AGTTACACGTGGTCTG,-0.15 kcal/mol
14,TGGGACACGTGTGGGA,0.14 kcal/mol
15,AATTGCACGTGCGCGG,-0.08 kcal/mol
16,TTTGTCACGTGGTGGG,0.09 kcal/mol
17,AAAAGCACGTGTTTGT,-0.09 kcal/mol
18,GCAGTCACGTGGGGGG,-0.01 kcal/mol
19,GGTAACACGTGGTGCA,0.01 kcal/mol
20,CCTGGCACGTGGGGAT,-0.2 kcal/mol
21,AGTTTCACGTGCTTGG,0.22 kcal/mol
22,TTCGGCACGTGGATAT,0.02 kcal/mol
23,ACTGTCACGTGGGTTC,0.03 kcal/mol
